# Measured values from PubChem BioAssay AID463173 (ICCB-Longwood Screening Facility, Harvard Medical School, 2010).
# Among all 52,000 compounds or so, about 4,300 (8.3%) were called active. Cut-off read from the data, not from the text of the source: active = survival mostly below about 52% (no sharp cut-off); inactive = mostly above about 56%. The list shows a part of the results.
# System: DeltatarO mutant
# Test: growth inhibition of S. aureus wild type versus tarO mutant, primary screen, teichoic acid synthesis inhibitors, RN4220, OD600 (AID 463173)
# Settings: OD600, 18 h, hits give low values, screened at 18.75 µg/mL (by protocol)
row,Compound,survival
1,COc1ccc(CNC(=O)CSc2ncc3c(n2)-c2ccc(Cl)cc2N(Cc2ccccc2)S3(=O)=O)cc1,inactive: 49%
2,Cc1ccccc1C(=O)NCC1COc2ccccc2O1 (stereo not given),inactive: 81%
3,COc1ccc(Cl)cc1NC(=O)c1cn(C2CCCC2)c(=O)c2c1c1ccccc1n2C,inactive: 72%
4,CC(=NCCN1CCNCC1)C1=C(O)CC(C)(C)CC1=O,inactive: 90%
5,Cc1cccc(N(CC(=O)Nc2ccccc2C(F)(F)F)S(=O)(=O)c2ccccc2)c1C,inactive: 104%
6,O=C(NCC(c1cccs1)S(=O)(=O)c1ccccc1)c1ccc(C(F)(F)F)cc1 (stereo not given),inactive: 90%
7,COc1ccc(OC)c(C2CC(=O)Oc3c2c(=O)n(C)c2ccccc32)c1 (stereo not given),inactive: 67%
8,Cc1ccc(S(=O)(=O)c2cn(Cc3ccccc3)c3cc(N4CCCCC4)c(F)cc3c2=O)cc1,inactive: 91%
9,O=C(NCc1ccco1)c1ccc(Cn2c(SCc3ccccc3)nc3cccnc32)cc1,inactive: 69%
10,COc1cc(OC)c(NC(=O)CCS(=O)(=O)c2ccc3c(c2)oc(=O)n3C)cc1Cl,inactive: 78%
11,COc1ccc(NC(=O)CSC2=Nc3ccccc3C3=NC(CC(=O)NCCc4ccccc4)C(=O)N23)cc1 (stereo not given),inactive: 74%
12,O=C(NC1CCCCC1)N1CCCC(c2nc(-c3ccc(Cl)cc3)no2)C1 (stereo not given),inactive: 97%
13,CC(C)(C)C1CCc2c(sc(NC(=O)c3cccc(Cl)c3)c2C(=O)NCc2ccco2)C1 (stereo not given),inactive: 113%
14,CC(=O)c1ccc(NC(=O)C2CCN(c3nnc(C)c4c(C)n(-c5ccccc5)nc34)CC2)cc1,inactive: 74%
15,Cc1ccc(-c2cc(C(=O)N3CCN(S(=O)(=O)c4ccc(Br)cc4)CC3)[nH]n2)c(C)c1,inactive: 75%
16,CC(C)OCCCn1c(=O)c2ccccc2n2c(-c3ccccc3)nnc12,inactive: 105%
17,CCc1nn2c(=O)cc(COC(=O)Cc3ccccc3)nc2s1,inactive: 72%
18,CCc1ccc(-n2nc(CO)c(C(=O)NCCOC)n2)cc1,inactive: 56%
19,CC(C(=O)NCC1(c2ccccc2)CCOCC1)N1CCCCC1 (stereo not given),inactive: 74%
20,COc1ccc(OC)c(S(=O)(=O)N2CCC(n3c(C)nc4cccnc43)CC2)c1,inactive: 73%
21,CN(C(=O)CC(=O)Nc1ccc2nc3n(c(=O)c2c1)CCCCC3)c1ccccc1F,inactive: 91%
22,Cc1scc(CN2CCN(c3ccccc3F)CC2)c1C,inactive: 64%
23,CC(C)(C)C(=O)Nc1ccccc1C(=O)Nc1nccs1,inactive: 86%

row,Compound,survival
1,CCc1ccc(CNC(=O)C2COc3ccc(OC)cc3C2)cc1 (stereo not given),inactive: 67%
2,CCOC(=O)c1c(C)sc(-c2c(-c3ccccc3)[nH]c3[nH]c(=O)[nH]c(=O)c23)c1O,inactive: 100%
3,COc1ccc(-c2noc(-c3ccc(N4CCOCC4)c([N+](=O)[O-])c3)n2)cc1,inactive: 46%
4,CCC(=O)n1nc(-c2ccccc2)nc1N,inactive: 104%
5,CC1=C(C(=O)Nc2ccccc2C)C(c2cccs2)n2nc(SCc3ccccc3)nc2N1 (stereo not given),inactive: 70%
6,CCc1ccc(S(=O)(=O)NCc2ccc3c(c2)CCN3C(=O)c2ccc(C)cc2)cc1,inactive: 71%
7,O=C(CSc1ccccn1)Nc1cccc(F)c1,inactive: 85%
8,Cc1ccc(CNC(=O)Nc2cc(C(=O)NCc3cccc(F)c3)ccc2N2CCCC2)cc1,inactive: 120%
9,CC(=O)N1CCc2cc(Br)cc(S(=O)(=O)N3CCC(C(=O)Nc4cccc(C)c4C)CC3)c21,active: 75%
10,COC(=O)c1nnn(CC(=O)NC(=O)Nc2ccc(F)cc2)c1C(=O)OC,inactive: 89%
11,O=C(Nc1ccc(S(=O)(=O)N2CCC(c3nc4ccccc4s3)CC2)cc1)c1ccccc1,inactive: 104%
12,CCCCn1c(CNC(=O)C23CC4CC(CC(C4)C2)C3)nnc1SCC(=O)Nc1ccc(C)cc1,active: 36%
13,COCCSc1nc2c([nH]c3ccccc32)c(=O)n1-c1ccc(OC)c(OC)c1,inactive: 120%
14,CC1CCCCN1Cc1c(O)ccc2c(=O)c(-c3ccccc3Cl)c(C(F)(F)F)oc12 (stereo not given),inactive: 55%
15,COc1ccc(Nc2c3c(nc4ccccc24)CCC3)cc1Cl,inactive: 59%
16,Cc1cccc(NC(=O)Cn2c(=O)n(Cc3ccc4c(c3)OCO4)c(=O)c3oc4ccccc4c32)c1C,inactive: 89%
17,Fc1ccc(CNc2ccc(N3CCCC3)cc2)cc1,inactive: 97%
18,Cc1ccc(CN(C(=O)COc2ccccc2Cl)c2ccccn2)o1,inactive: 59%
19,Cc1ccc(CNS(=O)(=O)c2ccc(C(=O)N(C)C)s2)cc1,active: -4%
20,CCOc1ccc(NC(=O)Cn2c(=O)n(Cc3ccc4c(c3)OCO4)c(=O)c3ccc(C(=O)NC4CCCCC4)cc32)cc1,inactive: 79%
21,CC(C)(C)C1CCc2c(sc(NC(=O)C3c4ccccc4Oc4ccccc43)c2C(N)=O)C1 (stereo not given),inactive: 84%
22,CCn1cc(S(=O)(=O)c2cc(C)cc(C)c2)c(=O)c2cc(F)c(N3CCCCC3)cc21,inactive: 86%
23,COc1ccc(OC)c(CNC(=O)Nc2cn(CC(C)C)c(=O)c3ccccc23)c1,inactive: 69%

row,Compound,survival
1,CCC(=O)N1c2ccc(S(=O)(=O)CCC(=O)NCc3ccccc3OC)cc2CC1C (stereo not given),inactive: 90%
2,CCOc1ccc(CCNC(=O)c2cc(=O)[nH]c3ccc(S(=O)(=O)N4CCCCC4C)cc23)cc1OCC (stereo not given),inactive: 83%
3,Fc1ccccc1-c1nc(N2CCN(c3cccc(Cl)c3)CC2)c2ccccc2n1,inactive: 57%
4,COCCNC(=O)Cn1ccc2cc(S(=O)(=O)N3CCCCCC3)ccc21,inactive: 73%
5,CC(C)c1ccccc1C=NCC(=O)O,inactive: 73%
6,Cc1ccc(-c2noc(CCC(=O)N(C)c3ccccc3F)n2)cc1,active: 38%
7,CCC(Sc1nc(N)cc(=O)[nH]1)C(=O)NC(C)c1ccccc1 (stereo not given),inactive: 94%
8,Cc1ccc(NC(=O)CNCCCN2CCOCC2)cc1Br,inactive: 85%
9,CCC(C(=O)OC)n1c(-c2ccccc2)nc2ccccc2c1=O (stereo not given),inactive: 90%
10,COc1ccccc1NC(=O)Cn1c(CN2CCCCC2)nc2ccccc2c1=O,inactive: 88%
11,CCc1ccc(-c2nnn(CC#N)n2)cc1,inactive: 111%
12,Cc1ccc(C2CC(=O)Nc3cc4c(cc32)OCCO4)cc1Br (stereo not given),inactive: 65%
13,Cc1nc2cc(-c3cccc(F)c3)nn2c(C)c1CCC(=O)NCCc1ccccc1,inactive: 97%
14,COc1ccc(N2CCN(S(=O)(=O)c3ccc4c(c3)C(C(C)C)C(=O)N4)CC2)cc1 (stereo not given),inactive: 125%
15,CCOC(=O)COc1ccc(-c2nnn(CC(=O)Nc3ccccc3)n2)cc1,inactive: 94%
16,COC(=O)CSc1nnc(COc2cccc3ccccc23)o1,active: 46%
17,N#Cc1cn(-c2ccccc2)nc1-c1cccnc1,inactive: 73%
18,Cc1cc(OCC(=O)N(C)c2ccccc2)cc(C)c1Cl,inactive: 104%
19,Cc1ccc(C)c(N2CCN(C(=O)c3cc(C)nc4c3c(C)nn4-c3ccccc3)CC2)c1,inactive: 126%
20,COc1ccc(CCNC(=O)C2COc3ccccc3O2)cc1 (stereo not given),inactive: 89%
21,COc1cc(NC(=O)CCN2CCN(CCO)CC2)cc(OC)c1,inactive: 159%
22,COc1cc(CN(C(=O)COc2ccc(F)cc2)c2ccccn2)cc(OC)c1OC,inactive: 81%
23,CCOc1ccc(OCC(=O)Nc2ccc(S(=O)(=O)Nc3cc(C)on3)cc2)cc1,inactive: 83%

row,Compound,survival
1,O=C(NC1CCCC1)C(c1ccncc1)N(Cc1ccco1)C(=O)Cn1nnc(-c2ccc(Cl)cc2)n1 (stereo not given),inactive: 52%
2,CCc1nn(CC(=O)NCCc2ccc(SC)cc2)c(=O)c2cc3sccc3n12,inactive: 117%
3,Cc1ccc(N2CC(C(=O)NC3CC3)CC2=O)cc1Cl (stereo not given),inactive: 89%
4,CCc1cccc(NS(=O)(=O)c2ccc3c(c2)CC(C)N3C(=O)C2CC2)c1 (stereo not given),inactive: 86%
5,CN1/C(=c2/sc(=C3C(=O)NC(=S)NC3=O)n(C)c2=O)Sc2ccccc21,inactive: 87%
6,CCc1c(C)c2ccc(O)c(CN3CCN(c4ccc(F)cc4)CC3)c2oc1=O,inactive: 55%
7,COc1ccccc1C(=O)NCc1nc2cccnc2n1Cc1ccc(F)cc1,inactive: 76%
8,COc1ccc(Cl)cc1NC(=O)CSc1nccn1-c1ccc(Cl)cc1,inactive: 95%
9,CCOCN(C(=O)Cn1c(COC)nc2ccccc21)c1c(C)cccc1CC,inactive: 95%
10,COc1ccccc1OCc1ccc(C(=O)NCc2ccncc2)o1,inactive: 91%
11,COc1ccc(S(=O)(=O)N2Cc3ccccc3CC2C(=O)Nc2cc(Cl)ccc2Cl)cc1 (stereo not given),inactive: 68%
12,CCN=C1S/C(=C\c2cn(CC(=O)NCc3ccco3)c3ccccc23)C(=O)N1CC,inactive: 95%
13,Cc1ccc(C)c(NC(=O)C2CCN(S(=O)(=O)c3c(C)noc3/C=C/c3cccs3)CC2)c1,inactive: 63%
14,Cn1c(/C(C#N)=C/c2ccccc2Br)nc2ccccc21,inactive: 79%
15,CCn1c(CNC(=O)c2ccc(OC)cc2)nnc1SCC(=O)Nc1cc(C)ccc1C,inactive: 112%
16,COc1ccc(CNC(=O)CCCn2nc(C)n3c(cc4sccc43)c2=O)cc1,inactive: 82%
17,COc1ccccc1/C=C/c1nc(C#N)c(NC2CCCCC2)o1,inactive: 85%
18,COCCn1c(C)cc(O)c(C(c2ccccc2OC)N2CCN(c3ccccc3)CC2)c1=O (stereo not given),inactive: 102%
19,COc1ccc(C(=O)NCCn2cc(SCc3ccc(C(F)(F)F)cc3)c3ccccc32)cc1OC,inactive: 72%
20,N#CC(C#N)=Cc1cn(CCCOc2ccccc2Cl)c2ccccc12,inactive: 76%
21,Cc1cccc(NC(=O)CSC2=Nc3ccccc3C3=NC(CC(=O)NCc4cccs4)C(=O)N23)c1 (stereo not given),inactive: 87%
